Results: article PMC4336329 (PLoS ONE, 2015)
Among all 310,000 compounds or so, about 14,000 (4.5%) showed an effect of 50% or more. The effect is printed as a negative number. Some of the results follow.

Biological target: human ether-à-go-go-related gene (hERG) potassium channel (human, UniProt Q12809)
Assay: primary screen, population patch clamp on CHO cells stably expressing hERG
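Further: peak tail current of the secondary pulse compared with the same well before compound.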

human ether-à-go-go-related gene (hERG) potassium channel, sequence (Q12809 whole entry, looked up): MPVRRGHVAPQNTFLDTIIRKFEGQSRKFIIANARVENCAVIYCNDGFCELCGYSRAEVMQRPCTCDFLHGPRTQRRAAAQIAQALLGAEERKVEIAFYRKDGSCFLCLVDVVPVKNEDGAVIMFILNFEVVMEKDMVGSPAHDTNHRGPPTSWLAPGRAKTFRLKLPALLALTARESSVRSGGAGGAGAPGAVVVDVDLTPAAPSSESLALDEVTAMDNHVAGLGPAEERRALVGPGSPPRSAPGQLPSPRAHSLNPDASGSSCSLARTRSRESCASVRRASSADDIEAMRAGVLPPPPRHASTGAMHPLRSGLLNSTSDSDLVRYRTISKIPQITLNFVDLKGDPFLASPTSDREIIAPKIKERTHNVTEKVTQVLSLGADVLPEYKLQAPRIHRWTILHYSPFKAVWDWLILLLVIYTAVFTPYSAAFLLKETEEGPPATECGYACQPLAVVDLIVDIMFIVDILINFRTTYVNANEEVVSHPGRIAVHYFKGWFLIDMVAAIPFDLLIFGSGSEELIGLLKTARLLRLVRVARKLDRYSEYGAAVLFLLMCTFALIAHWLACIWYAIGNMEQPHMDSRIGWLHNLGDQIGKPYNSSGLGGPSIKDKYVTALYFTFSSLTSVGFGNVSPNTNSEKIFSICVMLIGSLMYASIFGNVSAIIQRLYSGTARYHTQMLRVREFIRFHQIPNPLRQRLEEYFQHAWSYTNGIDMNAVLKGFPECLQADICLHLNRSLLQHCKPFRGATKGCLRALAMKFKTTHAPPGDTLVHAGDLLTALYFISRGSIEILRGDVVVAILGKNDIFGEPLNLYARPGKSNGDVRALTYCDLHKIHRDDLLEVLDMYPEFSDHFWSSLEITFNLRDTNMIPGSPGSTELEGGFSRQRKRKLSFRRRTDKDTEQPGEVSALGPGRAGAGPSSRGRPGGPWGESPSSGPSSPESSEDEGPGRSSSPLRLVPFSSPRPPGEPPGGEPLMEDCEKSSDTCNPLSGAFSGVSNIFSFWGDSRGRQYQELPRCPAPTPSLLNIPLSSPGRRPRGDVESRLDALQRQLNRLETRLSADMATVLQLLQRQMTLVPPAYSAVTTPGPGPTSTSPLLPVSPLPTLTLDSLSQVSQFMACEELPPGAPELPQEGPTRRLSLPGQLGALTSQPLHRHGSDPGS

| SMILES | hERG current change (%, negative = inhibition) at 10uM |
| --- | --- |
| O=C(O)C1CC(O)CN1C(=O)c1ccco1 (stereo not shown) | 18.8% |
| O=C(Nc1nnc(C2=COCCO2)o1)C1CCCCC1 | -0.233% |
| Cc1ccc(S(=O)(=O)NCc2ccc(C(=O)N3CCN(Cc4ccccc4)CC3)cc2)cc1 | -14.4% |
| O=C(CN1CCN(C(c2ccccc2)c2ccccc2)CC1)Nc1ccc(N2CCOCC2)cc1 | 7.76% |
| CCCCCCn1c(CN2CCN(CCO)CC2)nc2c1c(=O)n(C)c(=O)n2C | -38.3% |
| Cc1ccnc(NC(=O)CCc2c(C)nc3ncnn3c2C)c1 | -11.6% |
| COc1ccc(N/C=C/C(=O)c2sc(-c3ccccc3)nc2C)cc1 | 14.4% |
| CCCNC(=O)Cc1cc(=O)[nH]c(=O)[nH]1 | 16% |
| C=CCN1C(=O)C(CC(=O)Nc2ccc(OCCC)cc2)N(CCCN2CCN(Cc3ccccc3)CC2)C1=S (stereo not shown) | -38.7% |
| COc1ccc(-c2nnc(SCC(=O)Nc3ncc(C)s3)n2-c2ccccc2)cc1OC | -12.8% |
| Cc1cccc(NC(=O)/C(=C\c2cccs2)NC(=O)c2ccccc2)c1 | -51.7% |
| Cc1ccccc1-n1c(=O)/c(=C\c2ccco2)s/c1=C(/C#N)C(=O)Nc1ccccc1 | 1.12% |
| CC(C)(C)C(=O)N1CCC(O)(CS(=O)(=O)Cc2ccccc2)CC1 | 19.9% |
| COC(=O)C1CCN(C(c2ccc(OC)c(OC)c2)c2sc3nc(C)nn3c2O)CC1 (stereo not shown) | -8.73% |
| O=C(O)Cc1ccc2oc(-c3cccnc3)nc2c1 | 19.3% |
| COCCN(Cc1cc2cc(C)c(C)cc2nc1Cl)C(=O)N1CCOCC1 | 5.05% |
| CC(=O)C1=C(O)C(=O)N(CCC(=O)O)C1c1ccc(Cl)cc1Cl (stereo not shown) | 17.9% |
| CC1CCC(NC(=O)c2ccc(NC(=O)CC3SC(N4CCCC4)=NC3=O)cc2)CC1 (stereo not shown) | 13.9% |
| CCOC(=O)C1CCCN(C(=O)c2ccc(C)cc2O)C1 (stereo not shown) | -0.613% |
| CC(Oc1ccc(C(C)(C)C)cc1)c1ccnc2nc(/N=C/N(C)C)nn12 (stereo not shown) | -26.1% |
| O=C(NC(=O)N1CCN(c2ccccc2)CC1)c1ccc(Cl)cc1 | -6.41% |
| COc1cc(C2/C(=C(\O)c3ccc4c(c3)OCCO4)C(=O)C(=O)N2Cc2ccco2)ccc1O (stereo not shown) | 17.6% |
| Cc1nc2sccn2c(=O)c1S(=O)(=O)NCCc1ccccc1 | -21.5% |
| O=C(CSc1nnc(-c2ccco2)n1-c1ccccc1)N1CCN(C(=O)c2ccco2)CC1 | -30.6% |
| CCN(CC)S(=O)(=O)c1ccc(N2CCOCC2)c(NC(=O)COc2ccc(OC)cc2)c1 | -27.6% |
| Cc1cc(C(=O)Nn2cnnc2)ccc1[N+](=O)[O-] | 9.98% |
| COc1cc(C=C2C(=O)NC(=O)NC2=O)ccc1OS(=O)(=O)c1ccccc1[N+](=O)[O-] | 13.3% |
| NS(=O)(=O)c1ccc(CNC(=O)C23CC4CC(CC(C4)C2)C3)cc1 | 8.69% |

| SMILES | hERG current change (%, negative = inhibition) at 10uM |
| --- | --- |
| O=C(O)c1ccccc1SCc1ccc2c(c1)OCO2 | 0.469% |
| CN1C(=O)c2ccc(C(=O)Nc3cccnc3)cc2C1=O | 13.3% |
| Cc1ccc(NC(=S)N2CCC(c3ccccc3)C2)c(Cl)c1 (stereo not shown) | -2.77% |
| Cc1cc(C)nc(Nc2nc(C)c3cc4c(cc3n2)OCO4)n1 | -3.78% |
| Cc1ccnc(NS(=O)(=O)c2ccc(NC(=O)c3c(-c4ccccc4Cl)noc3C)cc2)n1 | 14.4% |
| O=c1ncn(-c2ccc(F)cc2)c2ncccc12 | -7.49% |
| NC(N)=Nc1nc(-c2ccccc2)c2cc(F)ccc2n1 | -66.2% |
| Cc1cc2nc(-c3ccc(SCC(=O)NC(C)C)nc3)[nH]c2cc1C | 5.39% |
| Cc1oncc1-c1csc(-c2ccccc2Cl)n1 | 6.99% |
| CCOC(=O)c1cc(S(=O)(=O)N2CC(C)CC(C)C2)cn1C (stereo not shown) | 9.35% |
| O=C(NNC(=O)c1ccco1)c1cccc([N+](=O)[O-])c1 | 18.1% |
| COC(=O)c1cc2sccc2n1Cc1nc(-c2cccc(Cl)c2)oc1C | 18.9% |
| O=C(CCl)N(C/C=C/c1ccccc1)c1ccc2c(c1)OCCO2 | 7.03% |
| Cc1ccc2oc(Nc3nc(C)c(C)c(C)n3)nc2c1 | 10.2% |
| Cc1ccc(C)c(N2CCN(S(=O)(=O)CC34CCC(CC3=O)C4(C)C)CC2)c1 (stereo not shown) | 8.75% |
| C/C(=N\NC(=O)c1cc(C)nc2ccccc12)c1cccc(Cl)c1 | 25.1% |
| COc1ccc(N2CCN(C(=O)CCNC(=O)Cn3ccc4ccccc4c3=O)CC2)cc1 | -8.61% |
| CC(=O)Nc1ccc(C(=O)OCc2ccccc2Cl)cc1 | 2.42% |
| N#Cc1ccccc1Sc1ccccc1C(=O)NCC(c1ccco1)N1CCCCC1 (stereo not shown) | -19% |
| Cc1nnnn1CC(=O)Nc1ccccc1[N+](=O)[O-] | -0.113% |
| CSc1ccc(CN2CCN(C(=O)c3ccncc3)CC2)cc1 | -21.4% |
| Oc1ccc(Nc2nc(-c3ccccc3F)nc3ccccc23)cc1 | -1.32% |
| COc1ccc(N(CC(=O)Nc2cc(C)on2)S(=O)(=O)c2ccc(Cl)cc2)cc1 | 9.89% |
| COC(=O)CCC(=O)Nc1sc(Cc2ccccc2)c(C)c1C(N)=O | 10.5% |
| CCOC(=O)N1CCC(=NNc2ccc(S(N)(=O)=O)cc2[N+](=O)[O-])CC1 | -11.8% |
| CCCCn1c(N)c(Sc2ccccc2)c(=O)[nH]c1=O | -6.42% |
| O=C(OC(C(=O)Nc1ccc(Cl)cc1C(F)(F)F)c1ccccc1)c1c(Cl)cccc1Cl (stereo not shown) | 4.93% |
